Laboratory results taken from PubChem BioAssay (NCATS).
This list was built around the results that the source calls inconclusive (neither active nor inactive); the mix of calls is not that of the screen. For some assays here: Potencies beside an inconclusive call are fits to weak or partial responses and may not hold up. Activity calls are given as the source filed them. Unless noted, calls follow the shape of the dose curve; as a rule, active = well fitted curve in the direction sought with a large enough effect; inconclusive = small, poorly fitted or top-dose-only effect, or another doubt; inactive = no such curve, though single readings can be large; an effect the other way counts as inactive or inconclusive.

Experiments:
[1] = qHTS Assay for Identification of Small Molecule Agonists for Hypoxia Response Element Signaling Pathway (AID 914; active = well fitted activation curve with a large enough effect in the signal ratio, with a control signal flat, not every such curve was filed as active; inconclusive = small, poorly fitted or top-dose-only effect, or effect the other way, or a change in a side signal; the % refers to the signal ratio; also: potency is read from the fitted curve at half-maximal effect); details: ME-180 (cervical carcinoma) HRE-bla reporter, beta-lactamase ratio, CoCl2, 17 h; activation: hits give high values
Summary of the method: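 HRE-bla ME-180 cells, overnight plating in Opti-MEM with 0.5% dialyzed FBS; cpd titration + EC50 CoCl2, 17 h, 37 degrees Celsius; CCF4 2.5 h RT; 460/530 nm ratio; AC50.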

[2] = qHTS Assay for Identification of Small Molecule Agonists for Thrombopoietin (TPO) Signaling Pathway (AID 917); details: TPO signaling pathway reporter cells, agonist qHTS, stimulated with TPO at its EC50; series mostly up to 38.5 µM; also: potency is read from the fitted curve at half-maximal effect
Summary of the method: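 Luminescence from a Glycoprotein IIb promoter–driven luciferase reporter served as read-out in murine Ba/F3 cells carrying the human TPO receptor. Cells, deprived of IL-3 overnight, received compounds with 26 pM TPO and were incubated 24 hrs at 37 C.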

[3] = biological target: Muscarinic acetylcholine receptor M1 (Rattus norvegicus) (UniProt P08482); experiment: qHTS Assay for Antagonists of Acetylcholine Muscarinic M1 Receptor: Measurement of IP-One Response (AID 944); details: CHO-M1 cells, IP-One HTRF, antagonist mode; series mostly up to 46.1 µM; also: potency is read from the fitted curve at half-maximal effect; nearly all actives have a fitted effect of over 75% in size
Sequence of UniProt P08482 (P08482 whole entry, looked up): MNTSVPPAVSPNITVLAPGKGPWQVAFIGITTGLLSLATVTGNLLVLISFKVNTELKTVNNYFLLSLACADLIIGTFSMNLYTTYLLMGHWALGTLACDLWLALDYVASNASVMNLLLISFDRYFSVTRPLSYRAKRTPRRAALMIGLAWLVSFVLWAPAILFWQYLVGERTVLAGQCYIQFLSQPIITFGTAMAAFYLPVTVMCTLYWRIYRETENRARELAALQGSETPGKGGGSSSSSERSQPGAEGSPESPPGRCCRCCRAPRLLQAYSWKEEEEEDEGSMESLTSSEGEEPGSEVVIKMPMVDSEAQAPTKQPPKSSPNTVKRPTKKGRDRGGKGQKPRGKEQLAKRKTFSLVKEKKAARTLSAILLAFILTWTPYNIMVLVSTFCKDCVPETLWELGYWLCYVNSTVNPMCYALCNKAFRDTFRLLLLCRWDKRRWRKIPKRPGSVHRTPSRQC

[4] = qHTS for differential inhibitors of proliferation of Plasmodium falciparum line 3D7 (AID 1876); also: potency is read from the fitted curve at half-maximal effect; details: P. falciparum 3D7 proliferation inhibition; series mostly up to 28.7 µM
[5] = qHTS for differential inhibitors of proliferation of Plasmodium falciparum line Dd2 (AID 1882); details: Potency: Plasmodium falciparum Dd2 proliferation inhibition; series mostly up to 28.7 µM; also: potency is read from the fitted curve at half-maximal effect; nearly all actives have a fitted effect of over 65% in size
Summary of the method: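 SYBR Green I DNA fluorescence read-out, ex 485/em 535 nm. Signals were normalized to 0.29 uM artemisinin and DMSO wells, then corrected using vehicle-only plates flanking each stack. Parasite growth ran 72 h in erythrocytes before lysis.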

[6] = qHTS for differential inhibitors of proliferation of Plasmodium falciparum line HB3 (AID 1886); details: Potency: Plasmodium falciparum HB3 proliferation inhibition; series mostly up to 28.7 µM;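 also: potency is read from the fitted curve at half-maximal effect; parasites grown with compound for 72 h before SYBR Green readout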
[7] = biological target: Ferritin light chain (Equus caballus) (UniProt P02791); experiment: qHTS Validation Assay for Identification of Novel General Anesthetics (AID 2323); details: horse apoferritin, anesthetic-site fluorescent probe displacement; series mostly up to 76.9 µM; also: potency is read from the fitted curve at half-maximal effect
Sequence of UniProt P02791 (P02791 whole entry, looked up): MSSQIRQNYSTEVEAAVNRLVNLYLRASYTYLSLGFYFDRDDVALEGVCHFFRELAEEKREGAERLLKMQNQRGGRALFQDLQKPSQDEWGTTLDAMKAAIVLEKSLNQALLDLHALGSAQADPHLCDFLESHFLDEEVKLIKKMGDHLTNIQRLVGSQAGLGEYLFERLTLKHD
Summary of the method: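 Fluorescence at 535 nm (excitation 380 nm) reported loss of 1-AMA binding to horse-spleen apoferritin (10 uM) in PBS with 50% saturated 1-aminoanthracene, after 10 min room-temperature incubation with compound; values from Hill fits of normalized response.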

[8] = Cytometry Cell-Based qHTS for Inhibitors of the mTORC1 Signaling Pathway in MEF cells (AID 2668); details: mTORC1 pathway readout; series mostly up to 38.3 µM; also: potency is read from the fitted curve at half-maximal effect
Summary of the method: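 Tsc2-/-, p53-/- MEFs re-expressing WT Tsc2; cpd 24 hrs, 37 degree Celsius; PFA fix, Alexa-488 p-rpS6 (Ser235/236) Ab 2 hrs RT, PI counterstain; Acumen 488nm scan; p-S6/PI ratio → % positive cells; PI count = viability.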

[9] = Quantitative high throughput screen for delayed death inhibitors of the malarial parasite plastid, 96 hour incubation (AID 488745); details: Plasmodium falciparum growth; series mostly up to 28.7 µM; also: potency is read from the fitted curve at half-maximal effect; nearly all actives have a fitted effect of over 70% in size
Summary of the method: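 P. falciparum carrying an integrated firefly luciferase reporter, grown in erythrocytes (2% hematocrit, 0.1% parasitemia final) in RPMI 1640/0.5% Albumax, was exposed to compound for 96 h (two generations) at 37 C, 5% CO2. Luminescence decrease indicated growth inhibition.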

[10] = biological target: Transient receptor potential cation channel subfamily V member 1 (Homo sapiens) (UniProt Q8NER1); experiment: HTS Assay for Compounds that Act as Enhancers of the Vanilloid Receptor 1 (AID 488979); details: TRPV1-expressing cells, enhancer of channel activity, stimulated with capsaicin at EC20; series mostly up to 41.7 µM; also: potency is read from the fitted curve at half-maximal effect
Sequence of UniProt Q8NER1 (Q8NER1 whole entry, looked up): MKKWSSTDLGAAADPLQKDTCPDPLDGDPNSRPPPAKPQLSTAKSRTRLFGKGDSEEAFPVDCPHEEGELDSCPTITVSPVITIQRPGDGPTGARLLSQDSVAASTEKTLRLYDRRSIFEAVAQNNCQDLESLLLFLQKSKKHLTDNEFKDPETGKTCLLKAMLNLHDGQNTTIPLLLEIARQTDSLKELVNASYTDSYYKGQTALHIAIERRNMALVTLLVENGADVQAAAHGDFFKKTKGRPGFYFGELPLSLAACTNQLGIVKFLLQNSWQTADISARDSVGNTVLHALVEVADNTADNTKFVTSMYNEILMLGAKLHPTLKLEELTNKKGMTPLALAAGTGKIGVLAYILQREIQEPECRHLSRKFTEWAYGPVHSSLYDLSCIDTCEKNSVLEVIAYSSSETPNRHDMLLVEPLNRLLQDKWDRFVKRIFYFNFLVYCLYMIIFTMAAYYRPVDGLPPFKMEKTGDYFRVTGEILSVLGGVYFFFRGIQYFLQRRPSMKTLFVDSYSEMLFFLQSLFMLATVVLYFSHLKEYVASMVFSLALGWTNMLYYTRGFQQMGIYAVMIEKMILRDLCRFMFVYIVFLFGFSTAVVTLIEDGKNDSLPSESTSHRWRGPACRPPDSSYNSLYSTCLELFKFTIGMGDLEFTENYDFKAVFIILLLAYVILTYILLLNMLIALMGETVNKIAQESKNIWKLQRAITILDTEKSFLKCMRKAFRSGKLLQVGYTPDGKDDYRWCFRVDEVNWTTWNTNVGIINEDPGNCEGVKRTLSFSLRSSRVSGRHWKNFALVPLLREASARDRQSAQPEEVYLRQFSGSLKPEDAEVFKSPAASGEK
Summary of the method: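 TRPV1-expressing cells loaded with Fluo-8 calcium dye; compounds added and calcium influx read kinetically for 3 min (agonist phase), then capsaicin at EC20 added and read 2 min more for enhancement. Fluorescence ex 480/em 520 nm.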

[11] = Validation screen for small molecules that induce DNA re-replication in SW480 colon adenocarcinoma cells (AID 504364); details: DNA re-replication phenotype (high-content imaging); series mostly up to 46.1 µM; also: potency is read from the fitted curve at half-maximal effect
Summary of the method: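 SW480 cells seeded at 250 per well were exposed to compound or DMSO for 48 hr at 37 C, 5% CO2, then stained with Hoechst for 40 min. DNA content per nucleus was imaged (405 nm ex, 500-530 nm em).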

[12] = qHTS for Inhibitors of ATXN expression: Validation of Cytotoxic Assay (AID 588349); details: cytotoxicity counter-screen for ATXN expression inhibitors, cell viability; series mostly up to 57.1 µM; also: potency is read from the fitted curve at half-maximal effect
Summary of the method: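 HEK293 cells were dosed with titrated compounds for 72 hr at 37 degrees C. Viability was read by CellTiter Glo luminescence, with intracellular ATP as the marker of cell survival.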

[13] = S16 Schwann cell viability assay (CellTiter-Glo assay) (AID 624031); details: S16 rat Schwann cells viability, 24 h; series mostly up to 57.5 µM;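 also: cellular ATP luminescence as a viability measure; potency is read from the fitted curve at half-maximal effect; nearly all actives have a fitted effect of over 70% in size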
Summary of the method: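 Untransfected S16 rat Schwann cells; compound 24 h, 37 °C/5% CO2; CellTiter-Glo ATP luminescence. % activity vs no-cell wells and DMSO controls (0%); concentration-effect curves classed by r2, response magnitude, activity.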

[14] = tested on: CP238; experiment: qHTS profiling for inhibitors of Plasmodium falciparum proliferation (AID 504749); also: potency is read from the fitted curve at half-maximal effect; nearly all actives have a fitted effect of over 60% in size; details: P. falciparum in erythrocytes, SYBR Green DNA, 72 h; series mostly up to 28.7 µM
Summary of the method: (§1)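 P. falciparum-infected erythrocytes (0.3% parasitemia, 2.5% hematocrit final) were exposed to compounds for 72 h at 37 C in 5% CO2, then lysed with SYBR Green buffer overnight at room temperature; parasite DNA fluorescence was normalized to artemisinin and DMSO controls.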

[15] = tested on: CP268; experiment: as above; details: P. falciparum in erythrocytes, SYBR Green DNA, 72 h; series mostly up to 28.7 µM
Summary of the method: as §1

[16] = tested on: ICS; experiment: as above; details: P. falciparum in erythrocytes, SYBR Green DNA, 72 h; series mostly up to 28.7 µM
Summary of the method: as §1

[17] = Quantitative High-Throughput drug screen in 47 multiple myeloma cell lines against the NCATS MIPE library collection: AMO1_DSMZ cell viability assay (AID 1918927; also: potency is read from the fitted curve at half-maximal effect; nearly all actives have a fitted effect of over 30% in size); details: AMO1 myeloma cells viability, CellTiter-Glo ATP luminescence, 48 h; series mostly up to 45.8 µM
Summary of the method: (§2)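 CellTiter-Glo luminescence (ATP) after 48 h compound exposure, 37C/5% CO2; 500 cells/well; MIPE 4.0 approved/investigational drugs pinned in; DMSO = 100%, media only = 0% viability.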

[18] = Quantitative High-Throughput drug screen in 47 multiple myeloma cell lines against the NCATS MIPE library collection: Karpas620_DSMZ cell viability assay (AID 1918959); details: Karpas620 myeloma viability, CellTiter-Glo ATP luminescence, 48 h; series mostly up to 45.8 µM; also: potency is read from the fitted curve at half-maximal effect; nearly all actives have a fitted effect of over 30% in size
Summary of the method: as §2

[19] = Quantitative High-Throughput drug screen in 47 multiple myeloma cell lines against the NCATS MIPE library collection: JIM3_ECACC cell viability assay (AID 1918963; also: nearly all actives have a fitted effect of over 35% in size); details: JIM3 myeloma viability, CellTiter-Glo ATP, 48 h; series mostly up to 45.8 µM
Summary of the method: as §2

[20] = Quantitative High-Throughput drug screen in 47 multiple myeloma cell lines against the NCATS MIPE library collection: H1112_PLB cell viability assay (AID 1918967; also: potency is read from the fitted curve at half-maximal effect; nearly all actives have a fitted effect of over 30% in size); details: H1112 myeloma cells viability, ATP luminescence, 48 h; series mostly up to 45.8 µM
Summary of the method: as §2
Tags tell the direction and shape of the fitted curve or compound fluorescence and quenching.

c1cc(CN2CCCCC2)cc(OCCCNc2nc3ccccc3s2)c1
Potency [1]: inconclusive: 10 µM [inhibitor, partial curve]
Potency [2]: inconclusive: 25.1 µM [inhibitor, single point]
Potency [3]: active: 14.1 µM
Potency [4]: active: 2.51 µM
Potency [5]: active: 7.08 µM
Potency [6]: active: 11.2 µM
Potency [7]: inconclusive: 28.2 µM [inhibitor, full curve]
Potency [8]: active: 16.5 µM
Potency [9]: active: 2.94 µM
Potency [10]: inconclusive: 12.6 µM [activator, single point]
Potency [11]: inconclusive: 25.9 µM [activator, single point]
Potency [12]: inconclusive: 20 µM [cytotoxic, partial curve, poor fit]
Potency [13]: inconclusive: 0.572 µM [cytotoxic, partial curve, poor fit]
Potency [14]: inconclusive: 6.31 µM [inhibitor, partial curve]
Potency [15]: inconclusive: 12 µM [inhibitor, partial curve, poor fit]
Potency [16]: inconclusive: 5.62 µM [inhibitor, partial curve]

C[C@](Cc1c[nH]c2ccccc12)(NC(=O)OC1C2CC3CC(C2)CC1C3)C(=O)NC[C@H](NC(=O)CCC(=O)O)c1ccccc1 (stereo not given in full)
Potency [17]: inconclusive: 33.2 µM [cytotoxic, single point]
Potency [18]: inconclusive: 37.2 µM [cytotoxic, single point]
Potency [19]: inactive
Potency [20]: inconclusive: 37.2 µM [cytotoxic, single point]
